In PubChem BioAssay AID504339 (National Center for Advancing Translational Sciences (NCATS), 2011):
Where “and” joins values, the source holds several entries; their conditions need not be identical. Equal values may be shown once. Among all 390,000 compounds or so, about 17,000 (4.4%) were called active. The inconclusive results got no clear call from the source; some entries with a clear call stand among them for comparison. Calls come from the whole dose curve; as a rule, active = well fitted inhibition curve with a large enough effect; inconclusive = small, poorly fitted or top-dose-only effect; inactive = no such curve, though single readings can be large or run the other way. A potency beside an inconclusive call is a rough fit, not a confirmed value.

Biological target: Lysine-specific demethylase 4A (Homo sapiens) (UniProt O75164)
Chain of UniProt O75164 (O75164 whole entry, looked up, the tested form may be a part): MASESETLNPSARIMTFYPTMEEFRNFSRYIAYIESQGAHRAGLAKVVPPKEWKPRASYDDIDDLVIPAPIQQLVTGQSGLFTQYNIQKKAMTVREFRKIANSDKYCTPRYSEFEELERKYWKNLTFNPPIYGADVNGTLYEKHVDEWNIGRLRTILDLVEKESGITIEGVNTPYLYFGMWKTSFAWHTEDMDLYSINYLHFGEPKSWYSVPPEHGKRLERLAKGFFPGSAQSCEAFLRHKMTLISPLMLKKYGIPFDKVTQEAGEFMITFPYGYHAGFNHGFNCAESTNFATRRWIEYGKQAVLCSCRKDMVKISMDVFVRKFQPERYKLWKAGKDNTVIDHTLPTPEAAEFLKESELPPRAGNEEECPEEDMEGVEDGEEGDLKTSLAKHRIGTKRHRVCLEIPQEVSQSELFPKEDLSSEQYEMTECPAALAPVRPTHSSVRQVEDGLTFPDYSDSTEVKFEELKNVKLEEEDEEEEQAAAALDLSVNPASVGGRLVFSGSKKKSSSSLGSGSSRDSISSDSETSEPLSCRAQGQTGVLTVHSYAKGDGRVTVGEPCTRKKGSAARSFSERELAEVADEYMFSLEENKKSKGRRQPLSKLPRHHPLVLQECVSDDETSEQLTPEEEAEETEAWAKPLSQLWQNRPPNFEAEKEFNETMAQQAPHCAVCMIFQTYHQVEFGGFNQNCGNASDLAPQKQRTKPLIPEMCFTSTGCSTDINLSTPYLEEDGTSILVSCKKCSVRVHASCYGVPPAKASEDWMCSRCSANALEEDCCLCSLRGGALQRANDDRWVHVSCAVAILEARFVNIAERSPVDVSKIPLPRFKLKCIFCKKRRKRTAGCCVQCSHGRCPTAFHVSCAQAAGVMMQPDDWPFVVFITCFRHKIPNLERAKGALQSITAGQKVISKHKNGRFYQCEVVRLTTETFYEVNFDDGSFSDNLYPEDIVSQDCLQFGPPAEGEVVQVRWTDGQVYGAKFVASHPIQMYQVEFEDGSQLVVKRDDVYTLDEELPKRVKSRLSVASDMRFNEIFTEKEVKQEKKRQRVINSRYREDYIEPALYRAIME
Experiment: qHTS Assay for Inhibitors of JMJD2A-Tudor Domain; note: nearly all actives have a fitted effect of over 50% in size
Conditions: AlphaScreen JMJD2A-Tudor / H3K4me3 peptide binding; series mostly up to 114 µM
Potency is the fitted concentration of half-maximal effect; tags give direction and shape of the fitted curve.

Potency, active:
Fc1ccccc1CN1CCN(c2ncccn2)CC1 6.31 µM, Cc1ccc(NCc2nc3ccccc3n2CCOc2ccccc2)cc1 15.8 µM, Cc1cc(O)c(C=Nc2ccc(Cl)cn2)c(=O)o1 31.6 µM, CCOC(=O)C1CCCN(CC(O)COCc2ccc3c(c2)OCO3)C1 (stereo unspecified) 1 µM, O=C(N/N=C/c1ccc(Cl)cc1)c1nc2ccc([N+](=O)[O-])cc2c(=O)[nH]1 28.2 µM, O=C(/C=C/c1ccc(-c2ccccc2[N+](=O)[O-])o1)c1ccco1 17.8 µM, O=C(c1ccc(OCCN2CCCCC2)cc1)c1c(-c2ccc(O)cc2)sc2cc(O)ccc12 56.2 µM and 39.8 µM

Potency, inactive:
COc1cc2ccccc2cc1C(=O)Nc1cccc(-c2nc3cc(C)c(C)cc3o2)c1C, O=C(COC(=O)COc1ccccc1F)NCCc1ccc(F)cc1, Cc1cccc(N2CCN(C(=O)CS(=O)(=O)c3cccc4nsnc34)CC2C)c1 (stereo unspecified), COc1ccccc1NS(=O)(=O)c1ccc(NC(C)=O)cc1, CC(C)N1CCN(C2CSCCSC2)CC1CCO (stereo unspecified), COc1ccc(-c2noc(-c3nnn(-c4cc(C)ccc4C)c3N)n2)cc1, Cc1ccc(-c2nc(CS(=O)CC(=O)N3CCN(c4ccc(Cl)cc4)CC3)c(C)o2)cc1 (stereo unspecified), O=C(Cn1nnc2ccccc2c1=O)N[C@@H](Cc1c[nH]c2ccccc12)C(=O)O, COc1ccccc1CNC(=O)COC(=O)C1CCN(c2ccc(C(F)(F)F)cn2)CC1, Cc1ccc(OCC(=O)Nc2ccc(C(N)=O)cc2)cc1, Cc1ccc(CNC(=O)CCS(=O)(=O)c2cc(Br)cc3c2N(C(=O)C2CC2)CC3)cc1, CC(C)Oc1cccc(C(=O)C2CCCN(C(=O)c3ccc4c(c3)OCO4)C2)c1 (stereo unspecified), COc1cc(OC)c(OC)cc1CN1CCCC(C(=O)c2sccc2C)C1 (stereo unspecified), Cc1ccccc1C(=O)c1cn[nH]c1-c1ccccc1O, NC(=S)N=Nc1c(O)[nH]c2cc(F)c(F)cc12, CCN(CC)c1nn2c(=O)c(C(=O)NCc3ccc(F)cc3)cnc2s1, CC(C)C1C(c2ccccc2)N(C)C(c2ccccc2)CC1(O)c1ccccc1 (stereo unspecified)

Potency, inconclusive:
Cc1ccc(C2C(C#N)=C(N)Oc3cc(N)ccc32)cc1 (stereo unspecified) 56.2 µM [inhibitor, partial curve, poor fit], O=S(=O)(NCc1ccccc1)c1ccc(NC(=S)NCc2ccco2)cc1 79.4 µM [inhibitor, partial curve], Cn1cccc1C(=O)OCc1csc(-c2ccccc2)n1 56.2 µM [inhibitor, partial curve], CC(=O)Oc1ccc2c(=O)c(Oc3ccccc3)c(C)oc2c1OC(C)=O 1.78 µM [inhibitor, partial curve, poor fit], COC(=O)[C@@]1(Cc2ccc(OC)cc2)[C@H]2c3cc(C(=O)N(C)C)n(Cc4ccc(OC(F)(F)F)cc4)c3C[C@H]2CN1C(=O)c1ccccc1 28.2 µM [inhibitor, full curve, poor fit], O=C(Nc1ccccc1)c1cc([N+](=O)[O-])ccc1NCc1cccnc1 35.5 µM [inhibitor, partial curve], CCOc1ccccc1NC(=O)c1c(NCc2sccc2C)sc2c1CCCCC2 39.8 µM [inhibitor, partial curve], NC(CSC1(c2cccc3ccccc23)c2ccccc2-c2ccccc21)C(=O)O (stereo unspecified) 79.4 µM [inhibitor, partial curve], Cc1ccccc1CCNC(=O)C1CCC(=O)N(CCc2cccc(F)c2)C1 (stereo unspecified) 15.8 µM [inhibitor, full curve], NC(=O)c1ccsc1NC(=O)COC(=O)/C=C/c1ccccc1[N+](=O)[O-] 50.1 µM [inhibitor, partial curve, poor fit], Cc1cccc(-c2nc(S(=O)(=O)c3ccc(F)cc3)c(NCCCN3CCOCC3)o2)c1 44.7 µM [inhibitor, full curve], O=c1cc(CO)oc(CN2CCN(c3ccccc3F)CC2)c1O 17.8 µM [inhibitor, single point], CCOc1cc(C2/C(=C(/O)c3ccc(OC(C)C)cc3)C(=O)C(=O)N2CCCOC)ccc1O (stereo unspecified) 89.1 µM [inhibitor, single point], Cc1c(O)ccc2c(CN3CCN(C/C=C/c4ccccc4)CC3)cc(=O)oc12 89.1 µM [inhibitor, partial curve], COc1ccccc1-c1ccc(/C=C2\C=CC(=O)O2)o1 31.6 µM [inhibitor, full curve, poor fit], CC(C)(C)C(=O)NC1(C(F)(F)F)C(=O)Nc2c1c(=O)[nH]c(=O)n2Cc1ccco1 (stereo unspecified) 89.1 µM [inhibitor, single point], COc1ccc(NCC(=O)N/N=C/c2ccc3c(c2)OCCO3)cc1 50.1 µM [inhibitor, partial curve], CC[C@]12c3[nH]c4cc(-c5ccco5)ccc4c3CCN1C(=O)[C@@H](CC(=O)NCc1ccco1)C[C@@H]2C(=O)N1CCN(C(=O)C2CC2)CC1 56.2 µM [inhibitor, partial curve], COc1cccc(Cn2cc(N)cn2)c1 50.1 µM [inhibitor, partial curve], CN(N)c1nc(-c2ccccc2)cc(-c2ccccc2)n1 56.2 µM [inhibitor, partial curve], CN(Cc1ccccc1)c1nc(-c2ccc([N+](=O)[O-])cc2)nc2ccccc12 31.6 µM [inhibitor, partial curve], Cc1cc(N2CCN(C)CC2)nc2ccc(NC(=S)N3CCN(c4ccccn4)CC3)cc12 31.6 µM [inhibitor, full curve]
